# From PubChem BioAssay AID504332 (National Center for Advancing Translational Sciences (NCATS), 2011)
# About 31,000 (8.9%) of roughly 350,000 compounds were called active. This list was built around the results that the source calls inconclusive (neither active nor inactive); the mix of calls is not that of the screen. The call rests on the fitted dose curve; in most records, active means well fitted inhibition curve with a large enough effect; inconclusive means small, poorly fitted or top-dose-only effect; inactive means no such curve, though single readings can be large or run the other way. Where the call is inconclusive, the potency comes from a doubtful curve fit.
# Molecular target: Histone-lysine N-methyltransferase EHMT2 (Homo sapiens) (UniProt Q96KQ7)
# Assay: qHTS Assay for Inhibitors of Histone Lysine Methyltransferase G9a; further: nearly all actives have a fitted effect of over 75% in size
# Conditions: G9a H3K9 monomethylation, AlphaScreen, 2 h; activity, negative = inhibition: at 59 µM (top of the series) unless noted
# Method in brief: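 Readings reflect AlphaScreen signal from monomethyl-H3K9 antibody detection. HMT at 20 nM; substrate b-H3K9 500 nM; cofactor SAM 20 uM; 2 h RT reaction; compounds tested as titrations in qHTS with 15 min preincubation.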
# On the % scale 0 is the no-effect control and ±100 the full control effect; potency means the concentration at half of the fitted maximal effect; tags describe the fitted curve by direction and shape.
# UniProt Q96KQ7, sequence (Q96KQ7 whole entry, looked up): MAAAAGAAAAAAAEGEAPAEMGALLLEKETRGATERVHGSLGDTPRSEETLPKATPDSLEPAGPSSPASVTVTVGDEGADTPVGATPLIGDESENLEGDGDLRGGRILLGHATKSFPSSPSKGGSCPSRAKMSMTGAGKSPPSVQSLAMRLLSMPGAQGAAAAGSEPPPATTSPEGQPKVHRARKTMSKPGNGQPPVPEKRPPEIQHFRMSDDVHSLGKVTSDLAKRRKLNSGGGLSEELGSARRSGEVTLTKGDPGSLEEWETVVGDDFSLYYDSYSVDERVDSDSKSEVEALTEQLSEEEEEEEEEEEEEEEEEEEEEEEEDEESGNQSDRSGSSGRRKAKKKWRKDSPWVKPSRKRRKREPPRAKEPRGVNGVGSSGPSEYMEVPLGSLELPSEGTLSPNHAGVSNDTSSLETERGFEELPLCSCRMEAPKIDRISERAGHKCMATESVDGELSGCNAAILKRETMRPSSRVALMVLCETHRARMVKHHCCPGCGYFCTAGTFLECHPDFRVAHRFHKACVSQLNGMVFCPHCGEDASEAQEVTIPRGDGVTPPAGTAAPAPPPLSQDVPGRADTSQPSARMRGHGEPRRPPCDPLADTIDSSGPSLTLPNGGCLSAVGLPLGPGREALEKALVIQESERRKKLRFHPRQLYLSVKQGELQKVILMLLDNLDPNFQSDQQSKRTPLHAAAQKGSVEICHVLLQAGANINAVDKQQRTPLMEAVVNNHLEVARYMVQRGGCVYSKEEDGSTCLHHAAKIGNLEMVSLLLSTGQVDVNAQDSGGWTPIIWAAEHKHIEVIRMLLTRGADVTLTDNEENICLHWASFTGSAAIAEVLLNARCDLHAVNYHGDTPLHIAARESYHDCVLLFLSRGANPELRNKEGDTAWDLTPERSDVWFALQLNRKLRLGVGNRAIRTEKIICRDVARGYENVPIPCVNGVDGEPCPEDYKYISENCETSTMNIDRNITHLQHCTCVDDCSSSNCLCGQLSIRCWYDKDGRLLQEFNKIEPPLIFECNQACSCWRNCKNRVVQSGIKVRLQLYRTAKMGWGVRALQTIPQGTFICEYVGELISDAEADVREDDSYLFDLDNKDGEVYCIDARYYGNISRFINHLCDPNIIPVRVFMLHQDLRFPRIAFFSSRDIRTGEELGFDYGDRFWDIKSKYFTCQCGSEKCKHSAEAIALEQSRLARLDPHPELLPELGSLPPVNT
Compound,Potency,"activity, negative = inhibition"
CCS(=O)(=O)N1CCN(c2ccccc2)CC1,"inconclusive: 70.8 µM [inhibitor, partial curve, poor fit]",
Cc1ccc(C2=NO[C@@](CC(=O)O)(C(=O)Nc3ccc4c(c3)OCCO4)C2)cc1,"inconclusive: 89.1 µM [inhibitor, single point]",
CCC1(c2ccccc2)NC(=O)N(CC(=O)Nc2ccccc2C(=O)NC2CC2)C1=O (stereo not drawn),active: 50.1 µM,
Cn1nnnc1SCC(=O)Nc1ccccc1Cl,inactive,
Cc1cccc(OCc2nnc(SCC(=O)N3c4ccccc4CCc4ccccc43)o2)c1,inactive,
CC1=C(C(=O)OCc2ccccc2)C(c2ccsc2)C(C#N)=C(N)O1 (stereo not drawn),"inconclusive: 35.5 µM [inhibitor, single point]",
O=C(Nc1ccc(S(=O)(=O)N2CCOCC2)cc1)c1cc([N+](=O)[O-])ccc1Cl,"inconclusive: 100 µM [inhibitor, single point]",
CN(Cc1ccccc1)C1CCN(Cc2ccccc2[N+](=O)[O-])CC1,active: 17.8 µM,
COc1ccc(-c2cn3cccnc3n2)cc1NC(=O)Nc1ccc(Cl)cc1,inactive,
COc1ccc2nc(C)cc(SCC(=O)O)c2c1,,inconclusive: -70.2% [inhibitor]
COc1ccc(/C=N/Nc2nc3ccccc3c(=O)[nH]2)cc1,,inconclusive: -57.1% [inhibitor]
CCOc1ccc(-n2c(SCC(=O)OC)nc3sc4c(c3c2=O)CCN(C)C4)cc1,"inconclusive: 89.1 µM [inhibitor, single point]",
O=C(CC1C(=O)N(c2ccccc2)C(=O)N1Cc1ccc(F)cc1)Nc1cccc(F)c1 (stereo not drawn),"inconclusive: 22.4 µM [inhibitor, partial curve, poor fit]",
O=S(=O)(c1cccc(C(F)(F)F)c1)N1CCN(C(=S)NCc2ccco2)CC1,"inconclusive: 31.6 µM [inhibitor, single point]",
CCOc1ccc(NC(=O)c2ccc3c(c2)CCN3S(=O)(=O)CC)cc1,"inconclusive: 10 µM [inhibitor, partial curve]",
CCOc1cccc(C2C(C(=O)c3ccc(C)o3)=C(O)C(=O)N2Cc2ccncc2)c1 (stereo not drawn),,inactive: -1.9% [at 12.7 µM]
CCOC(=O)/C(C#N)=C/c1cn(CCC(=O)O)nc1-c1ccc(OC)cc1,"inconclusive: 56.2 µM [inhibitor, partial curve, poor fit]",
CCCCn1c(Cc2ccccc2)nnc1SCC(=O)N1CCOCC1,"inconclusive: 10 µM [inhibitor, partial curve, poor fit]",
CCc1ccc(CCC(=O)Nc2nnc(CC)s2)o1,"inconclusive: 17.8 µM [inhibitor, full curve]",
Cc1c(-c2cc(C(=O)O)on2)cnn1C,"inconclusive: 31.6 µM [inhibitor, partial curve, poor fit]",
CCOc1ccc(N(CC(=O)NC2CCCCC2)S(=O)(=O)c2ccccc2)cc1,"inconclusive: 79.4 µM [inhibitor, single point]",
O=C(C[n+]1cc(-c2ccccc2)n2c1CCC2)c1cccs1,"inconclusive: 89.1 µM [inhibitor, single point]",

Compound,Potency,"activity, negative = inhibition"
Cc1ccc(N=C2NC(=O)/C(=C/c3cccn3C)S2)cc1,"inconclusive: 10 µM [inhibitor, full curve]",
CCCCC(=O)Nc1ccc(S(=O)(=O)N2CCCCC2c2cccnc2)cc1 (stereo not drawn),inactive,
CCOC(=O)c1ccc(N=c2sc(C(=O)OC)cc(=O)n2CCCN2CCOCC2)cc1,active: 50.1 µM,
CS(=O)(=O)N1CCC2(CCN(C(=O)Nc3cccc(F)c3)CC2)CC1,,inactive: -5.87% [at 12.7 µM]
Cn1c(CC2Sc3ccccc3NC2=O)nnc1SCC(=O)c1ccc(Cl)cc1 (stereo not drawn),active: 14.1 µM,
CC(C)(C)c1ccc(S(=O)(=O)NNC(=O)c2cc3ccccc3[nH]2)cc1,"inconclusive: 79.4 µM [inhibitor, single point]",
Cc1nn(-c2ccc(C(=O)O)cc2)c(=O)c2ccccc12,,inconclusive: -153% [inhibitor] [at 102 µM]
COc1cccc(C2C3=C(Nc4[nH]n(-c5ccccc5)c(=O)c42)c2ccccc2C3=O)c1 (stereo not drawn),active: 10 µM,
COc1cccc(-c2nnc(NC(=O)Cc3cccs3)s2)c1,"inconclusive: 10 µM [inhibitor, partial curve]",
COc1ccc(C2=C(N)c3ccccc3C2=O)cc1,"inconclusive: 0.1 µM [inhibitor, full curve, poor fit]",
CCn1c(C)nc2cc(C(=O)NNS(=O)(=O)c3cc(Br)ccc3Br)ccc21,"inconclusive: 31.6 µM [inhibitor, single point]",
Cc1ccc(S(=O)(=O)N2[C@@H](c3ccccc3F)C(C(=O)O)=CC[C@H]2c2ccc(Cl)cc2)cc1,,inactive: -0.77% [at 2.33 µM]
CCOC(=O)c1ccc(NC(=O)C(C)N2C(=O)c3ccccc3C2=O)cc1 (stereo not drawn),"inconclusive: 89.1 µM [inhibitor, single point]",
CCOC(=O)CSc1ccc(C(=O)NCCCN2CCOCC2)cc1[N+](=O)[O-],"inconclusive: 70.8 µM [inhibitor, partial curve, poor fit]",
CC1CC(C)CN(S(=O)(=O)c2ccc(C(C)(C)C)cc2)C1 (stereo not drawn),"inconclusive: 79.4 µM [inhibitor, single point]",
O=C(O)Cc1ccc(C(=O)c2ccccc2F)s1,active: 44.7 µM,
COc1ccc2[nH]c3c(c2c1)CCN(C(=O)c1cccc(Cl)c1)C3c1ccc(F)cc1 (stereo not drawn),"inconclusive: 20 µM [inhibitor, single point]",
Cc1ccc2[nH]c(=O)c(NC(N)=S)nc2c1,"inconclusive: 89.1 µM [inhibitor, single point]",
CC(C)c1nn2c(=O)cc(COC(=O)c3ccc(NC(=O)C4CCCCC4)cc3)nc2s1,inactive,
Cc1cc(C)c2c(c1)c(C)cc1nnc(SCC(=O)NCc3ccco3)n12,,inconclusive: -65.9% [inhibitor]
Cc1ccc(C)c(NC(=S)NC(NC(=O)N(C)C)C(Cl)(Cl)Cl)c1 (stereo not drawn),active: 4.47 µM,
